{"source": "PubChem BioAssay AID445", "about": "(National Center for Advancing Translational Sciences (NCATS), 2006)", "note": "The whole screen tested about 110,000 compounds, of which about 40 (0.04%) were called active. Inconclusive means that the source gave no clear call. Such entries were picked first, then a sample of the others. Calls follow the shape of the dose curve; as a rule, active = well fitted curve in the direction sought with a large enough effect in the signal ratio (not every such curve was filed as active); inconclusive = small, poorly fitted or top-dose-only effect, or a change in a side signal; inactive = flat fitted curve, though single readings scatter; the % refers to the signal ratio. A potency beside an inconclusive call is a rough fit, not a confirmed value. Potency is read from the fitted curve at half-maximal effect.", "data": [{"test": "IkB Signaling;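 as to IkBa stabilization activation: 0% = basal untreated cells and 100% = reference inhibitor full response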", "settings": "ABC-DLBCL IkBa-CBG/CBR dual luciferase ratio (green luciferase fused to IkBa over red control in OCI-Ly3 lymphoma cells), 4 h; IkBa stabilization activation: at 57.1 µM (top of the series), scaled: untreated 0%, proteasome inhibitor 100% unless noted", "how_it_was_run": "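Luminescence ratio of IκBα-fused green versus native red beetle luciferase in OCI-Ly3 cells, 4 h post-doxycycline with compound; red signal alone, scaled from basal (0%) to zero light (-100%), flagged nonspecific or cytotoxic effects.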", "values": [{"smiles": "O=C(Nc1ccc(Cl)cc1Cl)c1cc(S(=O)(=O)N2CCC3(CC2)OCCO3)ccc1F", "IkBa stabilization activation": "inconclusive: -0.891% [signal inhibitor]"}, {"smiles": "CCOc1cccc(NC(=O)C2CC(=O)N(C)C(=Nc3cccc(OC)c3)S2)c1", "note": "(stereo not drawn)", "IkBa stabilization activation": "inactive"}, {"smiles": "CC(=O)Oc1ccc(NC(=O)C2CCCCC2)c(C(=O)O)c1", "Potency": "inconclusive: 25.1 µM [signal inhibitor, partial curve]"}, {"smiles": "COC(=O)c1ccc(C)c(NS(=O)(=O)c2ccc(OC)cc2)c1", "IkBa stabilization activation": "inactive"}, {"smiles": "O=C1CS(=O)(=O)C2(C(=O)Nc3ccccc32)N1c1cccc(Cl)c1", "note": "(stereo not drawn)", "IkBa stabilization activation": "inconclusive: 5% [signal inhibitor]"}, {"smiles": "COc1cccc2c1cc1c(=O)n(CC(=O)N3CCN(c4ccccc4F)CC3)nc(C)n12", "IkBa stabilization activation": "inactive"}, {"smiles": "CN(C)c1ccc(C2(c3ccc(N(C)C)cc3)OC(=O)c3cc(N(C)C)ccc32)cc1", "IkBa stabilization activation": "inactive"}, {"smiles": "CC(C)(C)C(=O)Nc1cc(-c2cccc(Br)c2)nn1-c1ccccc1", "IkBa stabilization activation": "inconclusive: 0.296% [signal inhibitor]"}, {"smiles": "CC(=O)Oc1ccccc1C(=O)Nc1ncc([N+](=O)[O-])s1", "IkBa stabilization activation": "inconclusive: 15.4% [signal inhibitor]"}, {"smiles": "CCOC(=O)c1ccc(NC(=O)CSc2nc3ncc(Br)c(C)c3[nH]2)cc1", "IkBa stabilization activation": "inconclusive: 3.87% [signal inhibitor]"}, {"smiles": "Cc1cc(C)c2nc3s/c(=C/c4ccc5c(c4)n(C)c(=O)n5C)c(=O)n3c2c1", "IkBa stabilization activation": "inactive"}, {"smiles": "CCOC(=O)CC(=O)Nc1ccc(Br)cc1C(=O)O", "IkBa stabilization activation": "inconclusive: 13.4% [signal inhibitor]"}, {"smiles": "COc1ccc(-c2noc(CCCOc3ccccc3)n2)cc1OC", "IkBa stabilization activation": "inactive"}, {"smiles": "CCN(C(=O)c1ccc2c(c1)N(Cc1cccc(Cl)c1)C(=O)c1ccccc1S2=O)c1ccccc1", "note": "(stereo not drawn)", "IkBa stabilization activation": "inactive"}, {"smiles": "Cc1ccc(C)c(CSc2nc3c([nH]c4ccccc43)c(=O)n2C)c1", "IkBa stabilization activation": "inactive"}, {"smiles": "Cc1nn(C)cc1CN(C)C(=O)c1cc2nc(-c3ccco3)cc(C(F)(F)F)n2n1", "IkBa stabilization activation": "inactive"}, {"smiles": "COc1ccc(OC)c(-c2oc3ccccc3c(=O)c2O)c1", "IkBa stabilization activation": "inconclusive: -1.63% [signal inhibitor]"}, {"smiles": "CC(C)c1ccc2oc(-c3ccc(Cl)c(NC(=O)c4cccs4)c3)nc2c1", "IkBa stabilization activation": "inconclusive: 18.2% [signal inhibitor]"}, {"smiles": "CCOC(=O)N1CCC(Nc2c(N3CCN(c4cccc(C(F)(F)F)c4)CC3)c(=O)c2=O)CC1", "IkBa stabilization activation": "inconclusive: 2.37% [signal inhibitor]"}, {"smiles": "Cc1cccc(C)c1OCc1cc(=O)n2c(-c3ccccc3)csc2n1", "IkBa stabilization activation": "inconclusive: -1.44% [signal inhibitor]"}, {"smiles": "CC(=O)C1=C(C)NC(SCC(=O)c2ccc(Cl)cc2)=C(C#N)C1c1ccco1", "note": "(stereo not drawn)", "IkBa stabilization activation": "inconclusive: 5.14% [signal inhibitor]"}, {"smiles": "Cc1[nH]ccc2c1[nH]c1cc(=O)ccc12", "IkBa stabilization activation": "inconclusive: -1.51% [signal inhibitor] [at 25.6 µM, scaled: untreated 0%, proteasome inhibitor 100%]"}, {"smiles": "Cc1ccc(C(=O)Nc2ccc(F)cc2)cc1S(=O)(=O)N1CCCCCC1", "IkBa stabilization activation": "inconclusive: -0.275% [signal inhibitor]"}, {"smiles": "CNC(=O)c1cc(Nc2nnc(-c3ccc(O)cc3)c3ccccc23)ccc1OC", "IkBa stabilization activation": "inconclusive: 16.7% [signal inhibitor]"}, {"smiles": "CC(=O)OCCN(Cc1ccccc1)Cc1ccc2c(c1)OCO2", "IkBa stabilization activation": "inactive"}, {"smiles": "Fc1cc(Br)ccc1Nc1c2c(nc3nc(-c4cccs4)nn13)CCCC2", "IkBa stabilization activation": "inactive"}, {"smiles": "CCOC(=O)c1c(-c2ccc(C)o2)csc1NC(=O)CSc1nnc(C)s1", "IkBa stabilization activation": "inconclusive: 7.87% [signal inhibitor]"}, {"smiles": "CCN(CC)C(=O)Oc1ccc2c(=O)c(-c3ccc(OC)cc3)coc2c1", "IkBa stabilization activation": "inactive"}, {"smiles": "CCOc1ccc(OCc2cccc(C(=O)N3CCCC3)c2)cc1", "IkBa stabilization activation": "inactive"}, {"smiles": "COc1ccc(-c2cc(C)nc3c(-c4ccc(OC)c(OC)c4)c(C)nn23)cc1", "IkBa stabilization activation": "inconclusive: 0.536% [signal inhibitor]"}, {"smiles": "CCc1nc(N2CCN(C(=O)c3ccco3)CC2)c2oc3ccccc3c2n1", "IkBa stabilization activation": "inconclusive: -2.57% [signal inhibitor]"}, {"smiles": "Cc1cccc(-c2nnn3c2nc(NCCc2ccc(S(N)(=O)=O)cc2)c2cc(Cl)ccc23)c1", "Potency": "inconclusive: 10 µM [signal inhibitor, partial curve]"}, {"smiles": "CS(=O)(=O)N(CC(=O)NCCc1ccccc1)c1cc(C(F)(F)F)ccc1Cl", "IkBa stabilization activation": "inconclusive: -0.307% [signal inhibitor]"}, {"smiles": "CCCCCn1c(=O)[nH]c2cc(C(=O)N3CCN(c4cccc(C)c4)C(C)C3)ccc2c1=O", "note": "(stereo not drawn)", "Potency": "inconclusive: 6.31 µM [signal inhibitor]"}, {"smiles": "Cc1sc2nc3ccc(N4CCCC4)nn3c(=O)c2c1C", "IkBa stabilization activation": "inactive"}, {"smiles": "CCn1cc(C(=O)NCc2ccccc2OC)c(=O)c2cc(S(=O)(=O)N3CCCCC3)ccc21", "IkBa stabilization activation": "inactive"}, {"smiles": "CC(C)=CC(=O)Nc1ccc(Br)cc1", "IkBa stabilization activation": "inactive"}, {"smiles": "Fc1ccc(-c2cc3nc4c(c(N5CCOCC5)n3n2)CCCC4)cc1", "IkBa stabilization activation": "inactive"}, {"smiles": "Nc1cnn([C@@H]2O[C@H](CO)[C@@H](O)[C@H]2O)c(=O)n1", "IkBa stabilization activation": "inactive"}, {"smiles": "CC1=CC(C)(C)N(C(=O)CSc2nnc(-c3ccccc3)o2)c2ccc(C)cc21", "IkBa stabilization activation": "inconclusive: 2.11% [signal inhibitor]"}, {"smiles": "COc1ccc(S(=O)(=O)N(C)c2ccc(C(=O)NCC3CCCO3)cc2)cc1", "note": "(stereo not drawn)", "IkBa stabilization activation": "inactive"}, {"smiles": "CCn1c(=O)cc(SCC(=O)NCCc2ccc(Cl)cc2)c2ccccc21", "IkBa stabilization activation": "inconclusive: 0.183% [signal inhibitor]"}, {"smiles": "CCOC(=O)C1CCC(CN(Cc2ccc(Cl)cc2)S(=O)(=O)c2ccc(F)c(C(=O)Nc3cccc(F)c3)c2)CC1", "note": "(stereo not drawn)", "IkBa stabilization activation": "inconclusive: 0.873% [signal inhibitor]"}, {"smiles": "O=C(OCCN(C1=NS(=O)(=O)c2ccccc21)c1ccc(Cl)cc1)c1ccco1", "IkBa stabilization activation": "inactive"}, {"smiles": "COc1ccc(S(=O)(=O)N2CCCCC2)cc1C(=O)Nc1cccc(C(F)(F)F)c1", "IkBa stabilization activation": "inconclusive: 0.988% [signal inhibitor]"}, {"smiles": "COc1ccc(/C=C/C(=O)Nc2sc3c(c2C(N)=O)CCCC3)cc1", "IkBa stabilization activation": "inconclusive: 4.26% [signal inhibitor]"}, {"smiles": "Cc1cccc(-c2noc(CN(C(=O)c3ccc4c(c3)OCO4)C(C)C)n2)c1", "IkBa stabilization activation": "inconclusive: 0.662% [signal inhibitor]"}, {"smiles": "CCOC(=O)CNC(=O)c1cn(C)c(=O)c2cc(OC)c(OC)cc12", "IkBa stabilization activation": "inactive"}, {"smiles": "c1ccc(CC2CCN(c3nc(N4CCOCC4)nc(N4CCOCC4)n3)CC2)cc1", "IkBa stabilization activation": "inactive"}, {"smiles": "O=c1n(Cc2cccc(C(F)(F)F)c2)c2ccccc2c2nc(-c3ccccc3)nn12", "IkBa stabilization activation": "inconclusive: 3.12% [signal inhibitor]"}, {"smiles": "Cc1ccc(-c2ccc(CCC(=O)O)n2-c2cccc(O)c2)cc1", "IkBa stabilization activation": "inconclusive: 12.6% [signal inhibitor]"}, {"smiles": "Cc1ccc(CNC(=O)CCCCCn2c(=O)c3sccc3n(CC(=O)N(C)c3ccccc3)c2=O)cc1", "IkBa stabilization activation": "inconclusive: 2.23% [signal inhibitor]"}, {"smiles": "N#Cc1c(NC(=O)COC(=O)C2CC3C=CC2C3)oc(-c2ccccc2)c1-c1ccccc1", "note": "(stereo not drawn)", "IkBa stabilization activation": "inconclusive: 1.49% [signal inhibitor]"}, {"smiles": "O=C(CSc1nnc(-c2cccnc2)n1-c1ccccc1)Nc1ccc2c(c1)OCO2", "IkBa stabilization activation": "inconclusive: 2.52% [signal inhibitor]"}, {"smiles": "Nc1c(C(=O)OCC2CCCO2)c2nc3ccccc3nc2n1-c1ccc2c(c1)OCCO2", "note": "(stereo not drawn)", "IkBa stabilization activation": "inactive"}, {"smiles": "CSc1nn(Cc2ccc(Cl)cc2)c(N(C(C)=O)C(C)=O)c1S(=O)(=O)c1ccccc1", "IkBa stabilization activation": "inconclusive: -7.57% [signal inhibitor]"}, {"smiles": "Cc1ccc(NS(=O)(=O)c2ccc3[nH]c(=O)ccc3c2)cc1N(C)C", "IkBa stabilization activation": "inconclusive: 2.79% [signal inhibitor]"}, {"smiles": "Cc1ccc(C)c(OCCn2cc(C(=O)c3ccco3)c3ccccc32)c1", "Potency": "inconclusive: 25.1 µM [signal inhibitor, partial curve]"}, {"smiles": "CCn1c(CNC(=O)C23CC4CC(CC(C4)C2)C3)nnc1SCC(=O)Nc1ccccc1", "IkBa stabilization activation": "inactive"}, {"smiles": "CCc1cc2cc(C)ccc2nc1SCC(=O)N1CCN(C(=O)c2ccco2)CC1", "IkBa stabilization activation": "inconclusive: 4.17% [signal inhibitor]"}, {"smiles": "COc1ccc(-c2nc(CNS(=O)(=O)c3ccccc3)cs2)cc1", "IkBa stabilization activation": "inactive"}, {"smiles": "COc1cccc(CNC(=O)c2cc3c(s2)-c2c(C)cccc2OC3)c1", "IkBa stabilization activation": "inconclusive: 4.79% [signal inhibitor]"}, {"smiles": "COc1c2occc2cc2ccc(=O)oc12", "IkBa stabilization activation": "inactive"}, {"smiles": "O=C(Oc1ccc(F)cc1)c1nc(SCc2ccccc2F)ncc1Cl", "IkBa stabilization activation": "inconclusive: 1.93% [signal inhibitor]"}, {"smiles": "COc1ccccc1C(=O)NC1(C(F)(F)F)C(=O)Nc2c1c(=O)[nH]c(=O)n2-c1ccccc1", "note": "(stereo not drawn)", "IkBa stabilization activation": "inactive"}, {"smiles": "Cn1c(=O)c2c([nH]c(=O)n2Cc2ccc(Cl)cc2Cl)n(C)c1=O", "IkBa stabilization activation": "inactive"}, {"smiles": "Oc1ccc(N=Cc2ccc(O)c(O)c2)cc1", "Potency": "inconclusive: 10 µM [rising, partial curve]"}, {"smiles": "Cc1ccc(NS(=O)(=O)c2ccc3nc(-c4ccccc4)[nH]c3c2)c(Cl)c1", "IkBa stabilization activation": "inconclusive: 9.57% [signal activator]"}, {"smiles": "O=C(O)c1ccc2noc(-c3ccccc3)c2c1", "Potency": "inconclusive: 3.98 µM [signal inhibitor, full curve]"}, {"smiles": "Cc1ccc(Cn2c(C(=O)O)c(CNC3CCCCCC3)c3ccc(C)cc32)cc1", "IkBa stabilization activation": "inconclusive: 2.22% [signal inhibitor]"}, {"smiles": "COc1ccc(Cn2c(C(=O)O)c(CNCCc3cccs3)c3ccc(C)cc32)cc1", "IkBa stabilization activation": "inconclusive: -1.62% [signal inhibitor]"}, {"smiles": "CCN1CCN(C(c2ccccc2F)c2nnnn2Cc2ccc3c(c2)OCO3)CC1", "note": "(stereo not drawn)", "IkBa stabilization activation": "inactive"}, {"smiles": "CCc1ccccc1OC[C@@H](O)CN[C@H]1CCCc2ccccc21", "IkBa stabilization activation": "inconclusive: 0.0873% [signal inhibitor]"}]}]}
